Read counts are not given, so values of variants with three or more changes are uncertain.

Results on 167 variants are retold here after the RNAGym collection of RNA variant scans (doi:10.7554/elife.90254).

The chains are these.
B1: LINE1-mini (parent)
chain: GGCAGAGCUCAACACAGCGUGGCAAAGUGGCUGUGGCUAGACUGCC

In this data set the parent is B1. Put plainly: self-cleavage, relative activity (ratio to wild type); higher = more cleavage; in vitro, sequencing; the parent is a self-cleaving ribozyme.
On to A6G U9G A25U G36A C37U, for which the self-cleavage is 0.1. Turning to A6G C8G G17A C23U G30U C37A, the self-cleavage is 0.11. As to G17U U34G C37G A41U, the self-cleavage was determined as 0.01. Turning to C8G G17C G30A, the self-cleavage was determined as 0.03.

As for C10A C31A C45U, the self-cleavage was determined as 0.03. The same measure for A24U A25C C45A: 0.62; for A11G G33U U34A C37U: 0.

For the variant G1C G29C C31A, the self-cleavage came out at 0.02. Take G7A A24G A39U: the self-cleavage was 1.26. With C8A A12C G21U C23G G29U, the self-cleavage came to 0.02. Turning to U9C A14C G17U G22C, the self-cleavage came to 0.01. The value for A25U C37U A41G was 0.05; that for G7A C13G G17C G22A was 0.09; that for G1U G7U C10U G22C G33C was 0.02. On to G5U C13U C45G, for which the self-cleavage was 0.05. The value for G19C U34A G36U was 0.02; that for G2C G27C G30C A39U was 0.08. Take G5C C13A G44C: the self-cleavage was determined as 0.06.

In the case of G19A C45U C46U, the self-cleavage amounted to 1.83. Turning to U9G C10G A26C U32G, the self-cleavage stood at 0.02. The same measure for G29A U34C G36C C37U C45A: 0.02; for C31U A41G C45A C46A: 0.03; for U20G G22A C23A C37U: 0.03.

On to C15U G29U G33U, for which the self-cleavage is 0.1.

Take A12C G21C C23U G33U: the self-cleavage came to 0.08. As to A12U C13G G35C G40A, the self-cleavage is 0.04. G1U G5A U38A: the self-cleavage came out at 0.05.

Consider G22U G27A G29C C37U, for which the self-cleavage was 0.02. For the variant G7C C13U G36C C37G, the self-cleavage was found to be 0.05. The value for G5U U9G C10G C46G was 0; that for G5U C15A C18G A39C was 0.01.

On to A25C G30A C42A, for which the self-cleavage was 0.04. As for A4U A11G G44C, the self-cleavage worked out at 0.02. The same measure for G19A A24C G29U: 0.62; for C3A C8G G40U A41C: 0.11; for G5C G7U C15G G19U G35A G44U: 0.18. In the case of A12G C18G G27A U43A, the self-cleavage amounted to 0.06.

A12C G29A C31U G35U A39C: the self-cleavage was 0.02. For the variant A6C G17U C42A, the self-cleavage was 0.08. Consider C8U G19U C37A, for which the self-cleavage was 0.07. Take G7U C15G C18A C37U C46U: the self-cleavage came to 0.05. Consider C8G U9G G22A A24G U32A, for which the self-cleavage is 0.01. Consider G1U A6C U9G, for which the self-cleavage came to 0.01. With G5C U9A C31U, the self-cleavage was found to be 0.08. Take G33C A39G U43G: the self-cleavage came to 0.01.

For the variant G7C U32G G36C, the self-cleavage was 0.05. On to G17U G19A A26U G30U G35A, for which the self-cleavage is 0.02. In the case of C18G G21U A24G, the self-cleavage was found to be 0.39. For C13A A25G U28G G44A, the self-cleavage was found to be 0.02. The same measure for G7A C13G A16U C18G: 1.15; for G5U C8G G21C G22A C23G G29U C31U G40A G44A: 0.

With G30U C37G G40A, the self-cleavage stood at 0.07. Turning to G1A A39U U43G, the self-cleavage stood at 0.

With U9C A14G G27U C37A U38A, the self-cleavage was 0.02. The same measure for G1A C18A G36U U38C: 0.03.

For the variant G29C C42U C45A, the self-cleavage was 0.01. As to C18U G35C U43A, the self-cleavage came out at 0.04. In the case of A6G A26G G33U U38G, the self-cleavage worked out at 0.02. The same measure for G7C C10G A39G: 0.01; for A6C G22C G36C: 0.04; for G2U G21A G29C: 0.02. Take C23G G29U G40U: the self-cleavage amounted to 0.14. In the case of G1U A12U A41C, the self-cleavage was 0.03.

In the case of G5U G21A G22C C23G A26U G33C C46A, the self-cleavage came out at 0.03.

For G7C C13A U20A G35U A39C, the self-cleavage was determined as 0.23. In the case of A16C G36A U43A, the self-cleavage was determined as 0. With C3G G5C C13U U32A, the self-cleavage is 0.03. Turning to C13G G36U C46U, the self-cleavage was found to be 0.06. As for C13G G21U G33U, the self-cleavage turned out to be 0.05.

As to U9C C10U G17C G21C, the self-cleavage stood at 0.01. G2U A26C C37U: the self-cleavage is 0.03. In the case of C13U A25C U28A C31A C45G, the self-cleavage was 0.03.

On to C10U A16U G40C, for which the self-cleavage turned out to be 0. The same measure for G7A C18A G30A A41U: 0.06; for G17A U20C C23U G35C: 0.03; for A4U C15G G22A G35A: 0.02. The same measure for C8U G19U U20A C31A: 0.08. For the variant C8U G21C G36A, the self-cleavage amounted to 0.18.

On to C10G G27C C46A, for which the self-cleavage came out at 0.01. As to A4G G7A A16G C37G G40A G44U, the self-cleavage is 0.05. The value for C10A G22C G27A G30A was 0.02.

In the case of C8A G40C A41U, the self-cleavage was 0.33.

Turning to G7U C18U A24U C45G, the self-cleavage stood at 0.31.

In the case of C3A G29U U38A, the self-cleavage was 0.26.

On to G2U G44A C45G, for which the self-cleavage came out at 0.03. With G7U A12G G36U, the self-cleavage came to 0.02. The same measure for C3G A4U C31A G33U: 0.03; for A14C G17U G19C A26C C46G: 0.1. Take C15A G17C G33C: the self-cleavage stood at 0.03. Consider G2C G5A G7U A26G U28G G35U, for which the self-cleavage worked out at 0.37. The same measure for A11G A41G U43C: 0.01; for G2A G17C G35A C45G: 0.13. Consider G33C U34C C46G, for which the self-cleavage turned out to be 0.15. With G5A A6U C8G A41G U43A, the self-cleavage was determined as 0.04.

In the case of C13A U28A C31A U34A, the self-cleavage is 0.14. Turning to G17A G27U G35C C42U, the self-cleavage amounted to 0.03. C8A A14C G21A C45U: the self-cleavage was determined as 0.02.

With A4G A11U U28G, the self-cleavage is 0.16. For the variant G2A U9A G17U G21A C23A G30C C31U, the self-cleavage was found to be 0.01. For the variant C31U C42A U43A, the self-cleavage came out at 0.05. A6G U9A G30C C37A: the self-cleavage turned out to be 0.04. With C8G C37U U38G, the self-cleavage was 0.01. The value for G5U A14G G35U was 0.12; that for U9G C18U U28G G30A was 0.11; that for C10A G27C C46A was 0.01. In the case of G1U A12G G21U, the self-cleavage was 0.

With C10G A12G U34A U38G, the self-cleavage was found to be 0.02. Regarding A6G G7A A11U G36U A39U C46G, the self-cleavage was found to be 0.01. For the variant G22C C23A G35C, the self-cleavage was found to be 0.1. The same measure for C3A G35A C42A: 0.07; for A4G C37U A41U U43C: 0.12; for C15A A16G G22C: 0.02. The same measure for C3U A24U G27C G36A: 0.33. In the case of G7U C13A A24C A25C, the self-cleavage was determined as 0.06. Regarding G5C C31A G40C, the self-cleavage came to 0. Regarding A6C G7U C15G G44C, the self-cleavage was found to be 0.02. Take C8G A11U A24C: the self-cleavage was determined as 0.03. Regarding G7C A14C A16U G40U, the self-cleavage came to 0.11. Take G2U A12G G35A: the self-cleavage was 0.01.

In the case of G2A C10U G17C C45G, the self-cleavage was 0.94. G7U G17A A24U: the self-cleavage was determined as 0.09. On to G1C A14C G19A G22U, for which the self-cleavage came out at 0.02. As for A12G C18G C45U, the self-cleavage was 0.03. Consider G21C C23U A25U, for which the self-cleavage amounted to 0.2. As to A6U G7U C31G G35U, the self-cleavage was 0.03. Consider C15G C18A A25G G27A, for which the self-cleavage turned out to be 0. With C8A U9A A12G A16U G22C, the self-cleavage stood at 0.01. In the case of C10G U20C G33A, the self-cleavage came out at 0.01. The value for G19A G21A C31G G36A was 0.05. Consider A4G C18A U34A C37A, for which the self-cleavage came to 0.02. Turning to G1C G7U A25U, the self-cleavage was found to be 0.05. The same measure for U9G A11C C45G: 0.02; for A6U G7C C23G A26G: 0.45; for A12C G22A A26G: 0.02. On to G17C G33U G44U, for which the self-cleavage came to 0.07.

On to C10A C15A G40U, for which the self-cleavage was 0.04.

On to C3A A12G A24C A26C U32G, for which the self-cleavage is 0.23. In the case of C3G G33U C42A, the self-cleavage was found to be 0.04. With G22U G27A U28C, the self-cleavage is 0.91. On to A12C G19A G35C G44U, for which the self-cleavage was found to be 0.

Turning to C13U G17A A24U A26G U38A, the self-cleavage amounted to 0.05.

Take G1U U20C G44U: the self-cleavage came out at 0.08.

As to G1A C18A G27C U28G G29A C37A, the self-cleavage was determined as 0.05. Take A4G U9A A25G G30A G36A C37G: the self-cleavage is 2.42. The same measure for G2U U9G C23U: 0.05; for G7U A12G G30A: 0.03; for C18U C23U G35C: 0.01. The value for C15A A16U G22U A26C was 0.01; that for C8A A14U A16G U20G A24G was 0.13. The same measure for C10U U28A C45G: 0.37. On to G1U C3U A11C A14U A25C G44A C46A, for which the self-cleavage was 0. Turning to G5U C8U C13A A41C, the self-cleavage is 0.06.

In the case of G1U C13A A16C G17U U28A C45A, the self-cleavage came out at 0.09. On to C3A G17A C46A, for which the self-cleavage is 0.14. For the variant C10U A12U G27C G29C U32G, the self-cleavage worked out at 0.04. On to G5U C10A C23U C37U, for which the self-cleavage is 0.03. On to C8G C13A A14C C15U C45U, for which the self-cleavage was 0.15.

As to C15G C31A G33U C37U U38A, the self-cleavage was 0.02. As for A4U U20G U32C U34A G35U G44A, the self-cleavage is 0.03. With G1C C8U A14U G17A C31A, the self-cleavage turned out to be 0.04. Turning to C13A C31A C42A, the self-cleavage worked out at 0.02. Turning to G7U U20G C31U, the self-cleavage came to 0.04.

Take A12G A26G A39C: the self-cleavage was determined as 0.16.

On to C8G C13A A16U G33A, for which the self-cleavage amounted to 0.06. G5A C13G C45G: the self-cleavage was found to be 0.04. As to A4G A24G A26C U32A, the self-cleavage came out at 0.14. As for A6U C18A C23U A24C, the self-cleavage turned out to be 0.51.
